Assay results: PubChem BioAssay AID1645882 (National Center for Advancing Translational Sciences (NCATS), 2021)
The whole screen tested about 16,000 compounds, of which about 120 (0.75%) were called active. Another 4% or so got no clear call; they are omitted. Calls come from the whole dose curve; as a rule, active = well fitted inhibition curve with a large enough effect; inconclusive = small, poorly fitted or top-dose-only effect; inactive = no such curve, though single readings can be large or run the other way. Some of the results follow.

The compounds below were run against Rap guanine nucleotide exchange factor 3 (Homo sapiens) (UniProt O95398) (assay: Validation qHTS for antagonist of cAMP-regulated guanine nucleotide exchange factor 3 (EPAC1)). Conditions: EPAC1 Rap1B-BODIPY-GDP exchange, fluorescence; series mostly up to 150 µM; activity change, negative = inhibition: at the top concentration.
Method in brief: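 Nucleotide exchange followed as fluorescence loss when BODIPY-GDP leaves Rap1B (480 nm excitation, 540 nm emission), read at 5 min intervals over 30 min. Reaction: 100 nM EPAC1, 250 nM RAP1B-BODIPY-GDP, 50 uM GDP; ATA and DMSO define normalization.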
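Note: plate controls were DMSO for no effect and ATA control for full effect; nearly all actives have a fitted effect of over 75% in size.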

Chain of UniProt O95398 (O95398 whole entry, looked up): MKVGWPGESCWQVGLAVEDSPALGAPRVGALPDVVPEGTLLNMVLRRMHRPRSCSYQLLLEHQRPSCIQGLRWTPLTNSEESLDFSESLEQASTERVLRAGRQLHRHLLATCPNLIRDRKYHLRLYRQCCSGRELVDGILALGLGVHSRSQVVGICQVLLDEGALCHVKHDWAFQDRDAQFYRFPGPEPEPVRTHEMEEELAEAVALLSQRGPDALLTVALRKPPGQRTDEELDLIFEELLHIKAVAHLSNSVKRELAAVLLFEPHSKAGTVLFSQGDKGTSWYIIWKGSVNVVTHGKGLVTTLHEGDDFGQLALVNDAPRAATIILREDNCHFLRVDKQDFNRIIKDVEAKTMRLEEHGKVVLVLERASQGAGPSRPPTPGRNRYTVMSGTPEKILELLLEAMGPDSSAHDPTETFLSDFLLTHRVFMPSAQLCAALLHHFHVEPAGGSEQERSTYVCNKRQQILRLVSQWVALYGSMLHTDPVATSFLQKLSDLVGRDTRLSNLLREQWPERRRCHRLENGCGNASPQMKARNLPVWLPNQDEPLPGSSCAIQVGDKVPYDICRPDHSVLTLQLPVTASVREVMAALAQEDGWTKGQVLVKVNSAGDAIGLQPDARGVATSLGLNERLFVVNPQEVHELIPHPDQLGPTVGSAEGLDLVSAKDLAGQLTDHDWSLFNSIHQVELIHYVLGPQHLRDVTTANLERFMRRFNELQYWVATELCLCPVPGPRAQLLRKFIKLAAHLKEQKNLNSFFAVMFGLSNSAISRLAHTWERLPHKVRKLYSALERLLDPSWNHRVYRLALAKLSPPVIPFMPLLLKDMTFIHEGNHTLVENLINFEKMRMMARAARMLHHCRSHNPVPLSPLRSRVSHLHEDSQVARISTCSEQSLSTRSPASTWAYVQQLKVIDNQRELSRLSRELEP

| Compound | activity change, negative = inhibition |
| --- | --- |
| O=c1cnc2cnc(N3CCOCC3)nc2n1C[C@H]1CCCO1 | inactive: 21.4% |
| CCOC(=O)N1CCC(N2CCOc3ccc(CN4CCC(O)(c5cccnc5)CC4)cc3C2)CC1 | inactive: 2.96% |
| COc1cccc(Nc2ncc3nc(-c4cn(C)c5ccccc45)c(=O)n(CCC#N)c3n2)c1 | inactive: 1.53% |
| NCCC[C@@H](N)C(=O)O | inactive: -6.84% |
| COCC(=O)Nc1c(I)c(C(=O)NCC(O)CO)c(I)c(C(=O)N(C)CC(O)CO)c1I (stereo not drawn) | inactive: 8.99% [at 75.8 µM] |
| COc1ccc(-n2c(=O)c(-c3ccc(F)cc3)nc3cnc(OC)nc32)cc1 | inactive: 15.8% |
| COc1c(C=O)c(O)cc2c1C(=O)c1ccccc1C2=O | inactive |
| CCOC(=O)/C=C/c1ccccc1S(=O)(=O)NC(C)(C)C | inactive: -17.9% |
| CCC1CN(CC(=O)NC(C)c2c(C)nn(C)c2C)Cc2cc(OC)ccc2O1 (stereo not drawn) | inactive: 5.2% |
| C[C@@H](CSc1ccc(Br)cc1)CN1CC[C@H](C(C)(C)C)CCC1=O | inactive: -19.3% |
| NCCCCCCCCCCNS(=O)(=O)c1cccc2c(Cl)cccc12 | inactive: -3.2% |
| CN(C)[C@@H]1C(=O)C(C(N)=O)=C(O)[C@@]2(O)C(=O)C3=C(O)c4c(O)ccc(Cl)c4[C@@H](O)[C@H]3C[C@@H]12 | inactive |
| CCN1CCC(N[C@H]2C[C@@H](C(=O)NC)N(Cc3cccc4ccccc34)C2)CC1 | inactive: -1.7% |
| COC(=O)[C@@H](NC(=O)C1CCCN(c2nc(C)c3ccc(C)cc3n2)C1)C(C)C (stereo partly drawn) | inactive: 0.801% |
| OCC1CCCN(c2nc3cc4c(cc3cc2CNCc2cccs2)OCO4)C1 (stereo not drawn) | inactive: 18.7% |
| COc1c2c(nc3ccccc13)OC(C(C)(O)CO)C2 (stereo not drawn) | inactive: 0.666% |
| COc1ccc2c(c1)CCc1cnc(-n3ncc(C(=O)N(C)CC4CCCN(C)C4)c3C)nc1-2 (stereo not drawn) | inactive: 6.75% |
| COc1cc2c(cc1OC)-c1c(OC)c(OC)cc3ccnc(c13)C2=O | inactive: 2.42% |
| CC[C@@]1([C@@H]2O[C@@H]([C@H]3O[C@@](O)(CO)[C@H](C)C[C@@H]3C)C[C@@H]2C)CC[C@H]([C@]2(C)CC[C@]3(C[C@H](O)[C@@H](C)[C@@H]([C@@H](C)[C@@H](OC)[C@H](C)C(=O)O)O3)O2)O1 (stereo in doubt) | inactive |
| CC(O)CCCCn1c(=O)c2c(ncn2C)n(C)c1=O (stereo not drawn) | inactive: 14.9% |

| Compound | activity change, negative = inhibition |
| --- | --- |
| CC(=O)Oc1cc2c(s1)CCN(C(C(=O)C1CC1)c1ccccc1F)C2 (stereo not drawn) | inactive: 20.6% |
| OC[C@H]1O[C@@H](n2cnc3c(NC4CCCC4)nc(Cl)nc32)[C@H](O)[C@@H]1O | inactive: 41.9% |
| COc1ccc(NC(=O)N2CCCC3(CCN(C(=O)c4ccncc4)CC3)C2)cc1 | inactive: 30.5% |
| CCCCC(=O)N(Cc1ccc(-c2ccccc2-c2nn[nH]n2)cc1)[C@@H](C(=O)O)C(C)C | inactive: 23.8% |
| CC(C)C(=O)Nc1ccc([N+](=O)[O-])c(C(F)(F)F)c1 | inactive |
| Cc1c(C(=O)N2CCCC2)sc2ncnc(NCCCN3CCOCC3)c12 | inactive: 1.23% |
| C[C@H]1O[C@@H](O[C@H]2CC[C@@]3(C)[C@H](CC[C@@H]4[C@@H]3C[C@@H](O)[C@]3(C)[C@@H](C5=CC(=O)OC5)CC[C@]43O)C2)C[C@H](O)[C@@H]1O[C@H]1C[C@H](O)[C@H](O[C@H]2C[C@H](O)[C@H](O[C@@H]3O[C@H](CO)[C@@H](O)[C@H](O)[C@H]3O)[C@@H](C)O2)[C@@H](C)O1 | inactive: 18.6% |
| COc1ccccc1-c1nc(N(C)C)c2ccccc2n1 | inactive: 13.7% |
| COCC(=O)Nc1cc(C(=O)NC2CCCc3ccccc32)c2c(c1)nc(-c1ccncc1)n2C (stereo not drawn) | inactive: 3.61% |
| CC1=CC(=O)C2=C(C)C[C@@H]3OC(=O)[C@@H](C)[C@H]3C=C12 | inactive: 21.2% |
| O=S(=O)(N(Cc1ccccc1)[C@@H](CO)Cc1ccccc1)N(Cc1ccccc1)[C@@H](CO)Cc1ccccc1 | inactive: -1.23% |
| O=C(CO)[C@@H](O)[C@H](O)[C@@H](O)C(=O)O | inactive: 10.8% |
| OCCN1C[C@H](O)[C@@H](O)[C@H](O)[C@H]1CO | inactive: -11.3% |
| CCC(=O)NC1CCc2cccc(OC)c2C1 (stereo not drawn) | inactive: 14.5% |
| Cc1ccsc1CN1CCc2nnc(CCNC(=O)c3ccc(F)cc3)n2CC1 | inactive: 13.5% |
| COc1cc(-c2c(OC)cccc2OC)cc2c1OCCN(C(=O)CCC(=O)c1ccc(F)cc1)C2 | inactive: 13.3% |
| Cc1ccc(C(=O)NCCc2nnc3n2CCN(Cc2cc(C)cc(C)c2)CC3)cc1 | inactive: -5.23% |
| O=[N+]([O-])c1ccc(/C=N\O)o1 | inactive: 15.3% |
| CC(=O)Oc1ccc2c(c1)CCC1C2CC[C@]2(C)C(OC(C)=O)CCC12 (stereo partly drawn) | inactive: -28.3% |
| COc1cccc(Cn2c(=O)c(-c3cccc(C#N)c3)nc3cnc(N4CCOCC4)nc32)c1 | inactive: 9.65% |

| Compound | activity change, negative = inhibition |
| --- | --- |
| CC(=O)OCC[N+](C)(C)C | inactive |
| COc1cc2c(c(OC)c1OC)-c1c(cc3c(c1OC)OCO3)C[C@@H](C)[C@](C)(O)C2 | inactive |
| N[C@@H](Cc1cc(-c2ccc(Cl)cc2Cl)cc(CP(=O)(O)O)c1O)C(=O)O | inactive: -9.72% |
| CC1(C)CCC2=C(O1)c1ccccc1C(=O)C2=O | inactive: 0.439% [at 75.8 µM] |
| CNc1nc(-c2ccc3c(c2)OCO3)nc2ccccc12 | inactive: -7.55% |
| CC(=O)NCCNc1ncnc2ccc(-c3cccc(NS(C)(=O)=O)c3)cc12 | inactive: 5.68% |
| Cn1cccc1C(=O)N1CCC2(CC1)CN(C(=O)Nc1cccc(C#N)c1)C2 | inactive: -13.3% |
| COc1cc(CN2CCC3(CCC(CNC(=O)c4ccccc4)O3)CC2)cc(OC)c1 (stereo not drawn) | inactive: 13.7% |
| CCOc1ccc(NC(=S)Nc2ccc(OCC)cc2)cc1 | inactive: -2.81% |
| CC(=O)OC1CC(OC(C)=O)[C@]2(C)C(CC(O)[C@]3(C)C2CC[C@@]2(C)C(c4ccoc4)OC(=O)C4O[C@]432)C1(C)C (stereo partly drawn) | inactive: -25.5% |
| CC(C)=CCOc1cc2oc(=O)ccc2cc1O | inactive: -0.175% |
| Cc1cc(O)c(C)c2c1CC[C@H]1[C@H](C)C(=O)O[C@H]21 | inactive: 17.4% |
| CC1(C)C(=O)CC[C@@]2(C)C1CC(O)[C@@]1(C)C3=CC(=O)OC(c4ccoc4)[C@]3(C)CCC21 (stereo partly drawn) | inactive: 10.1% |
| O=C(O)CSCC(=O)NC1CCSC1=O (stereo not drawn) | inactive: 37% |
| O=C(Nc1ccccc1)N1CCC2(CC1)CCN(S(=O)(=O)c1ccccc1)CC2 | inactive: 2.58% |
| O=C1C(SCCO)=C(SCCO)C(=O)c2ccccc21 | inactive |
| COc1ccc(Oc2ncc3nc(-c4ccc(F)cc4)c(=O)n(Cc4cccs4)c3n2)cc1 | inactive: -0.023% |
| CCCCCCCC/C=C\CCCCCCCC(=O)OCC(CO)OC(=O)CCCCCCC/C=C\CCCCCCCC (stereo not drawn) | inactive: 2.68% [at 15.3 µM] |
